Results published in PubChem BioAssay AID662 (National Center for Advancing Translational Sciences (NCATS), 2007).
About 1,800 (2.5%) of roughly 71,000 compounds were called active. The shares of active, inactive and inconclusive entries below differ from those in the screen. Calls come from the whole dose curve; as a rule, active = well fitted activation curve with a large enough effect in the signal ratio, with a control signal flat (not every such curve was filed as active); inconclusive = small, poorly fitted or top-dose-only effect, or effect the other way, or a change in a side signal; inactive = flat fitted curve, though single readings scatter; the % refers to the signal ratio. Potencies beside an inconclusive call are fits to weak or partial responses and may not hold up.

experiment: Cell signaling CRE-BLA (Fsk stim); settings: CHO CRE-bla reporter (cAMP response element driving beta-lactamase), forskolin EC10, beta-lactamase ratio; activity change, negative = inhibition: at 38.2 µM (top of the series) unless noted; for activity change, negative = inhibition: % of control where 0% means no effect
In short: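 Reporter-gene assay: CHO cells with beta-lactamase behind cAMP responsive elements, co-treated with compound and EC10 NKH 477 for 3 hours at 37 degrees Celsius. Activity came from the 460/530 nm CCF4 emission ratio.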
Potency is the fitted concentration of half-maximal effect; tags give direction and shape of the fitted curve.

| Compound | activity change, negative = inhibition | Potency |
| --- | --- | --- |
| CC1CCN(C(=O)Cn2c(=O)n(CCc3ccccc3)c(=O)c3ccccc32)CC1 | inconclusive: 14.4% |  |
| O=C(NCCC1=CCCCC1)NC1CCCCC1 | inconclusive: -4.65% [at 7.6 µM] |  |
| COC(=O)C(C)Sc1nc(-c2ccc(OC)cc2)nc2c1c(=O)n(C)c(=O)n2C (stereo unspecified) | inactive: 10.7% |  |
| CC1(C)[C@@H](O)CC[C@@]2(C)[C@H]1CC[C@]1(C)[C@H]2C(=O)C=C2[C@@H]3C[C@@](C)(C(=O)O)CC[C@]3(C)CC[C@@]21C |  | inconclusive: 31.6 µM [rising, single point] |
| C/C(CC(O)(/C=N/O)c1ccccc1)=N\O (stereo unspecified) | inconclusive: 15.4% |  |
| COC(=O)[C@@]1(Cc2ccccc2)[C@H]2c3cc(C(=O)N4CCCC4)n(CCSCCO)c3C[C@H]2CN1C(=O)c1ccccc1 | inconclusive: -20.4% |  |
| COc1ccc(S(=O)(=O)Nc2cc(C(=O)NCCC(C)C)ccc2N2CCOCC2)cc1 | inactive: 8.9% |  |
| COc1ccccc1C(=O)N1CCN(S(=O)(=O)c2ccccc2)CC1 | inactive: 6.16% |  |
| CS(=O)(=O)N(Cc1ccc(C(=O)NC2CCCCC2O)cc1)c1ccccc1 (stereo unspecified) | inactive: 0.603% |  |
| COc1ccc2nc(/N=C\N(C)C)sc2c1 | inconclusive: 5.78% |  |
| CCc1nc(SCC(=O)c2cc(C)ccc2C)n[nH]1 | inconclusive: -9.95% [at 7.6 µM] |  |
| Cc1ccc(-c2nc(CS(=O)CC(=O)NC3CCC(C)CC3)c(C)o2)cc1 (stereo unspecified) | inactive: 1.67% |  |
| Cc1noc(C)c1-c1cc(Nc2ccccc2)ncn1 | inconclusive: 25.1% |  |
| CC(C)(C)c1ccc(C(=O)CSc2ncn[nH]2)cc1 | inconclusive: -7.69% |  |
| CCCn1c(N)c(C(=O)CSc2nc3ccccc3n2CCC#N)c(=O)n(C)c1=O |  | active: 1.58 µM |
| Nc1cc(N)nc(SCC(=O)Nc2ccc(Br)cc2Cl)n1 | inactive: 14% |  |
| COc1ccc2nc3oc(C(=O)N4CCC(C(N)=O)CC4)cc3cc2c1 | inactive: 29.1% |  |
| CCCCn1c(=S)[nH]c2ncccc2c1=O | inconclusive: 13.9% |  |
| O=C(Nc1ccc(N2CCCC2)c(Cl)c1)c1ccc(Br)o1 | inconclusive: 14.5% [at 7.6 µM] |  |
| Cc1ccccc1-n1c(SCc2c(C)noc2C)nnc1-c1c[nH]c2ccccc12 | inconclusive: 15.3% |  |
| COCCn1c(=O)c2c(nc3n2CCN3c2ccc(C)cc2)n(C)c1=O | inactive: -1.13% |  |
| COc1cccc(-c2cc(NCc3ccccc3OC)ncn2)c1 |  | inconclusive: 12.6 µM [rising, partial curve] |
| C=CCn1cc(C(=O)NCC2CCCO2)c(=O)c2cc(S(=O)(=O)N3CCCCCC3)ccc21 (stereo unspecified) | inconclusive: -2.6% |  |
| Cc1ccc(S(=O)(=O)N(C)c2ccc(NS(C)(=O)=O)cc2)cc1 | inconclusive: 12.7% |  |
| O=C(O)c1cc(=O)c2c(Cl)cc(Cl)cc2[nH]1 | inconclusive: -16.7% |  |
| O=c1oc(-c2cccnc2)nc2ccccc12 |  | inconclusive: 25.1 µM [rising, single point] |

| Compound | activity change, negative = inhibition | Potency |
| --- | --- | --- |
| CCn1cc(C(=O)NCc2ccco2)c(=O)c2cc(S(=O)(=O)N3CC(C)CC(C)C3)ccc21 (stereo unspecified) |  | inconclusive: 5.01 µM [falling, partial curve] |
| c1ccc(CNc2ccc3ccccc3n2)nc1 | inactive: 3.63% |  |
| Cc1ccc(S(=O)(=O)N2CCC(C(=O)N[C@H](C(=O)NCC3CCCO3)C(C)C)CC2)cc1 (stereo partly specified) | inconclusive: 13.2% |  |
| CCCNc1nc2c(c(=O)[nH]c(=O)n2C)n1Cc1ccc(F)cc1 |  | active: 10 µM |
| Cc1cc(C)nc(N2CCCC(C(=O)Nc3ccc4nc(C)c(C)nc4c3)C2)n1 (stereo unspecified) |  | active: 6.31 µM |
| COc1ccc(-c2noc(CSc3ccccc3)n2)cc1OC |  | inconclusive: 12.6 µM [rising, partial curve] |
| CC(C)[C@@H](CC(=O)N[C@@H]1CCNC[C@H]1C(=O)N[C@H](CC(=O)N[C@@H](CCC(=O)O)CC(=O)O)Cc1ccccc1)NC(=O)C[C@H](CO)NC(=O)[C@@H]1CCCC[C@H]1N | inactive: -7.73% |  |
| CCC(Sc1nccn1C)C(=O)Nc1cccc2ccccc12 (stereo unspecified) | inconclusive: -20.4% [at 7.6 µM] |  |
| Cc1nc2cnc(N3CCN(C)CC3)nc2n(Cc2ccc(F)cc2)c1=O | inconclusive: 22.1% |  |
| CCOC(=O)CSc1nc2ccccc2c(=O)n1CCCCCC(=O)NCc1ccco1 | inactive: -5.46% |  |
| CCCSc1nc2c(cnn2-c2ccc(F)cc2)c(=O)[nH]1 |  | active: 2 µM |
| O=C(CSc1n[nH]c(-c2cccnc2)n1)Nc1ccnc2ccccc12 |  | inconclusive: 12.6 µM [rising, single point] |
| O=C(CN1C(=O)c2ccccc2C1=O)NC1(C(=O)O)CCCC1 | inactive: 3.52% [at 7.6 µM] |  |
| CCCCCC(=O)Nc1ccc(N2CCN(C(=O)c3ccccc3)CC2)cc1 | inconclusive: 4.06% |  |
| Cc1nn(-c2ccccc2)c2[nH]c(=O)c(CNc3ccc(N4CCOCC4)cc3)cc12 |  | inconclusive: 10 µM [rising, partial curve] |
| Cc1cc(C)c2c(n1)nn1c(NCCCN(C)C)cc(C)nc21 | inconclusive: 15.1% |  |
| CC1(C)CC(=O)C(=CN2CCN(C(=O)c3ccco3)CC2)C(=O)C1 |  | inconclusive: 20 µM [rising, single point] |
| O=S(=O)(c1ccccc1)N1CCC2(CCCN(Cc3ccncc3)C2)CC1 | inactive: -6.44% |  |
| O=Nc1ccc2oc(=O)ccc2c1 | inactive: 4.6% |  |
| CCOC(=O)c1c(C2CCN(C(=O)OCC)CC2)nc2ccccn12 |  | inconclusive: 3.16 µM [rising, partial curve] |
| CC(C)C[C@@H](CC(=O)N[C@@H](CCCN)CC(=O)N[C@@H]1CCNC[C@H]1C(=O)N[C@H](CC(=O)N[C@@H](CCC(=O)O)CC(=O)O)Cc1c[nH]c2ccccc12)NC(=O)[C@@H]1CNCC[C@H]1N | inconclusive: -15.4% |  |
| OC(CCCCN1CCCCC1)c1ccccc1 (stereo unspecified) | inactive: -3.02% |  |
| O=C1CC(NC23CC4CC(CC(C4)C2)C3)C(=O)N1c1ccc2c(c1)OCO2 (stereo unspecified) | inconclusive: 24.7% |  |
| O=c1sc(Nc2ccccc2)nc2ccsc12 |  | inconclusive: 15.8 µM [rising, single point] |
| COc1ccc(CNn2c(C)nc3ccccc3c2=O)cc1 | inconclusive: -2% |  |
